Assay results taken from paper PMC9911399, “Two distinct binding modes provide the RNA-binding protein RbFox with extraordinary sequence specificity”.
Substitutions are numbered along the chain they refer to; changes in the protein carry UniProt numbers. The list shows a part of the results.

B1: CAAAGCG (DNA:RNA)
RNA: GGGAGACCGGAAUUCAGAUUGUCCCAAAGCGUUAAAUCCCGUCGUAGCCACCA
DNA 1: CAATCTGAATTCCGGTCTCCC
DNA 2: TGGTGGCTACGACGGGATT
B2: GGACAGU (DNA:RNA)
RNA: B1 RNA with C25G, A26G, A28C, G29A, C30G, G31U
DNA 1: CAATCTGAATTCCGGTCTCCC
DNA 2: TGGTGGCTACGACGGGATT
B3: GAUACGA (DNA:RNA)
RNA: B1 RNA with C25G, A27U, G29C, C30G, G31A
DNA 1: CAATCTGAATTCCGGTCTCCC
DNA 2: TGGTGGCTACGACGGGATT
B4: CGAGUAG (DNA:RNA)
RNA: B1 RNA with A26G, A28G, G29U, C30A
DNA 1: CAATCTGAATTCCGGTCTCCC
DNA 2: TGGTGGCTACGACGGGATT
B5: AUAGACU (DNA:RNA)
RNA: B1 RNA with C25A, A26U, A28G, G29A, G31U
DNA 1: CAATCTGAATTCCGGTCTCCC
DNA 2: TGGTGGCTACGACGGGATT
B6: AUUCACA (DNA:RNA)
RNA: B1 RNA with C25A, A26U, A27U, A28C, G29A, G31A
DNA 1: CAATCTGAATTCCGGTCTCCC
DNA 2: TGGTGGCTACGACGGGATT
B7: CGUCUUC (DNA:RNA)
RNA: B1 RNA with A26G, A27U, A28C, G29U, C30U, G31C
DNA 1: CAATCTGAATTCCGGTCTCCC
DNA 2: TGGTGGCTACGACGGGATT
B8: CUACGCA (DNA:RNA)
RNA: B1 RNA with A26U, A28C, G31A
DNA 1: CAATCTGAATTCCGGTCTCCC
DNA 2: TGGTGGCTACGACGGGATT
B9: GGUGAAC (DNA:RNA)
RNA: GGGAGACCGGAAUUCAGAUUGUCCGGUGAACUUAAAUCCCGUCGUAGCCACCA
DNA 1: CAATCTGAATTCCGGTCTCCC
DNA 2: TGGTGGCTACGACGGGATT
B10: GUUCGGG (DNA:RNA)
RNA: B1 RNA with C25G, A26U, A27U, A28C, C30G
DNA 1: CAATCTGAATTCCGGTCTCCC
DNA 2: TGGTGGCTACGACGGGATT
B11: UAAACUU (DNA:RNA)
RNA: B1 RNA with C25U, G29C, C30U, G31U
DNA 1: CAATCTGAATTCCGGTCTCCC
DNA 2: TGGTGGCTACGACGGGATT
B12: UCAUUUC (DNA:RNA)
RNA: B1 RNA with C25U, A26C, A28U, G29U, C30U, G31C
DNA 1: CAATCTGAATTCCGGTCTCCC
DNA 2: TGGTGGCTACGACGGGATT
B13: CACACUU (DNA:RNA)
RNA: B1 RNA with A27C, G29C, C30U, G31U
DNA 1: CAATCTGAATTCCGGTCTCCC
DNA 2: TGGTGGCTACGACGGGATT
B14: CAGUGAG (DNA:RNA)
RNA: B1 RNA with A27G, A28U, C30A
DNA 1: CAATCTGAATTCCGGTCTCCC
DNA 2: TGGTGGCTACGACGGGATT
B15: UCAGUUU (DNA:RNA)
RNA: B1 RNA with C25U, A26C, A28G, G29U, C30U, G31U
DNA 1: CAATCTGAATTCCGGTCTCCC
DNA 2: TGGTGGCTACGACGGGATT
B16: ACGGAUU (DNA:RNA)
RNA: B9 RNA with G25A, G26C, U27G, A30U, C31U
DNA 1: CAATCTGAATTCCGGTCTCCC
DNA 2: TGGTGGCTACGACGGGATT
B17: AUCCUUC (DNA:RNA)
RNA: B9 RNA with G25A, G26U, U27C, G28C, A29U, A30U
DNA 1: CAATCTGAATTCCGGTCTCCC
DNA 2: TGGTGGCTACGACGGGATT
B18: ACUUAGG (DNA:RNA)
RNA: B9 RNA with G25A, G26C, G28U, A30G, C31G
DNA 1: CAATCTGAATTCCGGTCTCCC
DNA 2: TGGTGGCTACGACGGGATT
B19: AUCGCCU (DNA:RNA)
RNA: B1 RNA with C25A, A26U, A27C, A28G, G29C, G31U
DNA 1: CAATCTGAATTCCGGTCTCCC
DNA 2: TGGTGGCTACGACGGGATT
B20: CACCUUA (DNA:RNA)
RNA: B1 RNA with A27C, A28C, G29U, C30U, G31A
DNA 1: CAATCTGAATTCCGGTCTCCC
DNA 2: TGGTGGCTACGACGGGATT
B21: CAAACAG (DNA:RNA)
RNA: B1 RNA with G29C, C30A
DNA 1: CAATCTGAATTCCGGTCTCCC
DNA 2: TGGTGGCTACGACGGGATT
B22: AUUUUAA (DNA:RNA)
RNA: B9 RNA with G25A, G26U, G28U, A29U, C31A
DNA 1: CAATCTGAATTCCGGTCTCCC
DNA 2: TGGTGGCTACGACGGGATT
B23: ACACCAA (DNA:RNA)
RNA: B1 RNA with C25A, A26C, A28C, G29C, C30A, G31A
DNA 1: CAATCTGAATTCCGGTCTCCC
DNA 2: TGGTGGCTACGACGGGATT
B24: CACGUAG (DNA:RNA)
RNA: B1 RNA with A27C, A28G, G29U, C30A
DNA 1: CAATCTGAATTCCGGTCTCCC
DNA 2: TGGTGGCTACGACGGGATT
B25: UACCCUC (DNA:RNA)
RNA: B1 RNA with C25U, A27C, A28C, G29C, C30U, G31C
DNA 1: CAATCTGAATTCCGGTCTCCC
DNA 2: TGGTGGCTACGACGGGATT
B26: UCUGCGG (DNA:RNA)
RNA: B9 RNA with G25U, G26C, A29C, A30G, C31G
DNA 1: CAATCTGAATTCCGGTCTCCC
DNA 2: TGGTGGCTACGACGGGATT
B27: AGCCUGA (DNA:RNA)
RNA: B9 RNA with G25A, U27C, G28C, A29U, A30G, C31A
DNA 1: CAATCTGAATTCCGGTCTCCC
DNA 2: TGGTGGCTACGACGGGATT
B28: AAAUCCA (DNA:RNA)
RNA: B1 RNA with C25A, A28U, G29C, G31A
DNA 1: CAATCTGAATTCCGGTCTCCC
DNA 2: TGGTGGCTACGACGGGATT
B29: GAGGAUA (DNA:RNA)
RNA: B9 RNA with G26A, U27G, A30U, C31A
DNA 1: CAATCTGAATTCCGGTCTCCC
DNA 2: TGGTGGCTACGACGGGATT
B30: UUACAUG (DNA:RNA)
RNA: B1 RNA with C25U, A26U, A28C, G29A, C30U
DNA 1: CAATCTGAATTCCGGTCTCCC
DNA 2: TGGTGGCTACGACGGGATT
B31: CGAUACU (DNA:RNA)
RNA: B1 RNA with A26G, A28U, G29A, G31U
DNA 1: CAATCTGAATTCCGGTCTCCC
DNA 2: TGGTGGCTACGACGGGATT

target: T1, RBFOX1 RRM RbFoxmut (Fox-RRM*) (Homo sapiens, UniProt Q9NWB1 109-208, R118D;E147R;N151S;E152T); assay: EMSA; HiTS-Eq, 1 nM pool, 10 min; buffer printed only for the single-RNA assays: 10 mM Tris pH 7.5, 150 mM NaCl, 3.4 mM EDTA, 0.001% NP-40, 30 C; details: tags: His6 N-terminal (pET28a); label: 5' 32P
T1 sequence: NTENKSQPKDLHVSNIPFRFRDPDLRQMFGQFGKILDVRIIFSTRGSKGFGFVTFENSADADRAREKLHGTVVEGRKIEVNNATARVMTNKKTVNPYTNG
Procedure, shortened: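 Purified RbFox RRM (wild type or mutant) was equilibrated for 10 min in 50 µL with 1 nM of a 5′-radiolabelled pool of RNA with 7 randomized nucleotides, its flanks annealed to DNA oligonucleotides, across increasing protein concentrations. Free RNA was separated by 8% native PAGE, excised, reverse-transcribed, PCR-barcoded and sequenced on an Illumina HiSeq 2500. Relative association constants came from read-count changes of each variant against the control reaction, normalised to the cognate motif.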

Binder | binding signal
B1 | 0.0929 KA relative to UGCAUGU
B2 | 0.0929 KA relative to UGCAUGU
B3 | 0.0786 KA relative to UGCAUGU
B4 | 0.154 KA relative to UGCAUGU
B5 | 0.0784 KA relative to UGCAUGU
B6 | 0.117 KA relative to UGCAUGU
B7 | 0.173 KA relative to UGCAUGU
B8 | 0.149 KA relative to UGCAUGU
B9 | 0.0899 KA relative to UGCAUGU
B10 | 0.0874 KA relative to UGCAUGU
B11 | 0.0599 KA relative to UGCAUGU
B12 | 0.0773 KA relative to UGCAUGU
B13 | 0.0845 KA relative to UGCAUGU
B14 | 0.139 KA relative to UGCAUGU
B15 | 0.0841 KA relative to UGCAUGU
B16 | 0.0816 KA relative to UGCAUGU

Binder | binding signal
B17 | 0.095 KA relative to UGCAUGU
B18 | 0.0957 KA relative to UGCAUGU
B19 | 0.0874 KA relative to UGCAUGU
B20 | 0.106 KA relative to UGCAUGU
B21 | 0.0731 KA relative to UGCAUGU
B22 | 0.118 KA relative to UGCAUGU
B23 | 0.107 KA relative to UGCAUGU
B24 | 0.163 KA relative to UGCAUGU
B25 | 0.0459 KA relative to UGCAUGU
B26 | 0.083 KA relative to UGCAUGU
B27 | 0.09 KA relative to UGCAUGU
B28 | 0.0742 KA relative to UGCAUGU
B29 | 0.0968 KA relative to UGCAUGU
B30 | 0.0647 KA relative to UGCAUGU
B31 | 0.0847 KA relative to UGCAUGU
